The values that follow come from the supplement of paper PMC11417369.

± gives the standard deviation of the averaged measurements. Some of the results follow.

The test has as its system PfAP2-I AP2 domain 3 (GST-tagged). As to the kind of experiment: gcPBM binding intensity (ln(normalized median fluorescence intensity)); higher = stronger DNA binding. In short, it runs like this:
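In this array assay, P. falciparum DNA-binding domains with a GST tag, expressed in E. coli, were applied for 1 h to primer-extended double-stranded 36-bp intergenic genomic probes and negative controls on an Agilent 4 × 180k array. Bound protein was visualised with Alexa488 anti-GST antibody at 488 nm. Binding intensity is the highest Masliner-normalised natural-log median intensity across replicate spots of either probe orientation.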
With “AAGAAAAAATAAAAAATAAAAATAAAAAATAAAAAA [TGCATGCA_negctrl_site274]”, the “gcPBM binding intensity (ln)” value turned out to be 7.32 ± 0.77.
As for “AAAAAATATTAATATAGTACTTTATATTTATAAGTA [XGTACX_site6895]”, the “gcPBM binding intensity (ln)” value is 7.53 ± 0.27.
Next, “GGAAAAAATATATGCACACCCCCCAAAAAAAAAAAA [CACACA_site2222]”: 10.6 ± 0.2.
With TTTTTGTTATTTTTAGTGCACATTTAAGGGTGTATT, the “gcPBM binding intensity (ln)” value came out at 11.4 ± 0.53.
For the sequence “GAAGGAAAAACAGAATGTACATAAATAAACGTATAT [XGTACX_site753]”, the “gcPBM binding intensity (ln)” value worked out at 8.31 ± 0.35.
As to “ACAAAATTTACAAAATGTACAAAATTTACAAAATGT [XGTACX_site6464]”, the “gcPBM binding intensity (ln)” value was found to be 7.5 ± 0.61.
As for “TATATCTTACTTTTTGCACACACTAATATTATTGTT [CACACA_site1640]”, the “gcPBM binding intensity (ln)” value came to 9.45 ± 0.32.
In the case of “AATACGGCAAACATTAAAAAATATAATAACAATAAA [CACACA_negctrl_site868]”, the “gcPBM binding intensity (ln)” value was 7.75 ± 0.55.
Regarding “ATCTGTCGACAGGACAGTACACAGTAGCCAGGAAAT [XGTACX_site1994]”, the “gcPBM binding intensity (ln)” value is 8.09 ± 0.93.
With “TATATATATATATATATATATATGTATGTGCATTTA [TGCATGCA_negctrl_site53]”, the “gcPBM binding intensity (ln)” value is 9.42 ± 0.41.
As for “ATATAAAAATGTAAGGGTACATAATAAATAATCAAA [XGTACX_site5217]”, the “gcPBM binding intensity (ln)” value was determined as 7.92 ± 0.34.
Turning to “ATTTAGAAAAATAAAACACACATATATATGTAAATA [CACACA_site4113]”, the “gcPBM binding intensity (ln)” value worked out at 7.58 ± 0.59.
The same measure for “ATGGACTTTTATAGTTGTACATACTATGAGAACTTT [XGTACX_site2800]”: 8.12 ± 0.23.
In the case of “TAAAATAAATTGTGCACACATATTTATAAATATGAA [CACACA_site2331]”, the “gcPBM binding intensity (ln)” value was 11.3 ± 0.35.
For the sequence “TACATATAAAAGTACACACACACACCCATATATATA [CACACA_site941]”, the “gcPBM binding intensity (ln)” value was 8.34 ± 0.61.
As for “GTTTATCACAGCCACGCACACATAATATATGTATAT [CACACA_site3669]”, the “gcPBM binding intensity (ln)” value is 8.16 ± 0.5.
“TATTGCCCGAAACACACACACATATATATATATATA [CACACA_site2491]”: the “gcPBM binding intensity (ln)” value was 9.31 ± 0.4.
The same measure for “TATAATATTTACGACAGTACATATATATATATGTAT [XGTACX_site8332]”: 7.74 ± 0.31.
The same measure for “AAATAATTTGTTGACACACACACACCCATACATATA [CACACA_site2285]”: 8.23 ± 0.4; for “ATTATATGTAACACGTGTACCTATTTATGTATGCTT [XGTACX_site5748]”: 7.79 ± 0.66.
With “GATATATAAACATATACACACAAAAACATATTTATA [CACACA_site6734]”, the “gcPBM binding intensity (ln)” value was 7.68 ± 0.22.
As to “AATATACAAAATATCACACATATAAAATAATATATA [CACACA_site6067]”, the “gcPBM binding intensity (ln)” value is 7.49 ± 0.36.
With “AATGGTTCAACGTAGTGTACGTAATAAATAATAAAT [XGTACX_site8668]”, the “gcPBM binding intensity (ln)” value is 7.97 ± 0.65.
On to “AAATAATATGTAATCAAATTCACCAAACGAAAAAAA [TGCATGCA_negctrl_site33]”, for which the “gcPBM binding intensity (ln)” value is 7.62 ± 0.61.
The same measure for “TGATAATTTCATTTTGCATGTGACAATACAAGATGT [TGCATGCA_site203]”: 7.79 ± 0.64; for “ATCCAAAAAATTAATGCATGCGCAAAAAATAGCTTA [TGCATGCA_site615]”: 7.88 ± 0.63.
Consider “TGTCCTTATTTGCACACACACATATAAGAAATTTAA [CACACA_site7485]”, for which the “gcPBM binding intensity (ln)” value is 10.1 ± 0.4.
For the sequence “AAAAAAAAAACATACACACACATATATATATATATG [CACACA_site1586]”, the “gcPBM binding intensity (ln)” value was determined as 8.14 ± 0.22.
Regarding “TTTGTTTTATCTTATATGCACACGATAAAAAAAAAA [CACACA_site2673]”, the “gcPBM binding intensity (ln)” value amounted to 9.42 ± 0.042.
As to “AGATGATATACGTAAACACACAAATAAAAAAAATTT [CACACA_site3327]”, the “gcPBM binding intensity (ln)” value was found to be 7.74 ± 0.73.
On to “ACAAAAAAATAAGGTGCACACAAAAAAAAAAAAAAA [CACACA_site8171]”, for which the “gcPBM binding intensity (ln)” value is 10.7 ± 0.76.
With “ATATAGCATATAATTTGTACACAGGCCATACCTGAA [XGTACX_site533]”, the “gcPBM binding intensity (ln)” value is 7.83 ± 0.72.
Next, “GAGTTCAGTTTTTGTTGTACTTATTCTTAATATGTC [XGTACX_site6083]”: 7.93 ± 0.38.
“TTTTTTTTTTTTTGATGTACTTATTTAATAAGATAT [XGTACX_site376]”: the “gcPBM binding intensity (ln)” value amounted to 8.22 ± 0.58.
As for “TATATGGCATATTTCACACACACATAATGAATATTA [CACACA_site9181]”, the “gcPBM binding intensity (ln)” value was 7.79 ± 0.56.
For “AATACGTTATTATTTTGTACATATAAATAATAAGTT [XGTACX_site815]”, the “gcPBM binding intensity (ln)” value amounted to 7.64 ± 0.49.
Turning to “ACTCTTTTAACGCAAAGTACTTTTTAAAATATTTCG [XGTACX_site7534]”, the “gcPBM binding intensity (ln)” value worked out at 8.46 ± 0.52.
Turning to “ATTTCTATTTGGGTTAGTACATATAAGTCTATTTTC [XGTACX_site3234]”, the “gcPBM binding intensity (ln)” value stood at 7.92 ± 0.52.
The same measure for “AACATACGAATATTCACACATAAATATATAAATCGC [CACACA_site4672]”: 7.67 ± 0.56; for “TTTTTTTTTTCTTTTTGTACATATTCATAACAAGTA [XGTACX_site2784]”: 8.12 ± 0.5.
Consider “TATATAATCGAGTGCACACACAAAAAAAAAGTGAAC [CACACA_site1483]”, for which the “gcPBM binding intensity (ln)” value stood at 10.1 ± 0.45.
For the sequence “TATTATATATATATCACACATATATTCATGTACATA [CACACA_site5432]”, the “gcPBM binding intensity (ln)” value stood at 7.96 ± 0.52.
On to “ATATATAATATTTATTGTACTATTTTATTTTTATAA [XGTACX_site705]”, for which the “gcPBM binding intensity (ln)” value stood at 7.84 ± 0.2.
As to “TTTGACATACCTCTTGCATGTGAAAAACTTTTCGCT [TGCATGCA_site364]”, the “gcPBM binding intensity (ln)” value was determined as 7.61 ± 0.82.
